# Tested on: patients with relapsing multiple sclerosis (MS)
# Assay: long-term extension of the study (up to 36 months, FTY720 once-daily)
compound,measurement,value
"CCCCCCCCc1ccc(CCC(N)(CO)CO)cc1 [FTY720, 2-amino-2-[2-(4-octylphenyl)ethyl]propane-1,3-diol]",most frequently reported adverse events (AEs; >15% of patients),"nasopharyngitis, headache, fatigue, and influenza"

# Reference: patent US20170128389A1, “Paediatric Compositions For Treating Multiple Sclerosis” (Novartis AG, priority 2008, published 2017)
